78 compounds from PubChem BioAssay (NCI) can be followed below.

Each structure is given as a SMILES string.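 48-hour exposure; five concentrations; linearly interpolated endpoints. Here, GI50 denotes the concentration required for 50% inhibition of growth. Definition used: TGI = concentration required for complete inhibition of growth.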 Peptide text beside a SMILES is read from it. * marks the point of attachment. Boc = CC(C)(C)OC(=O)*

In the experiment the test system is NCI-H322M lung. Nature of the experiment: growth of human tumour cells (NCI), 48 h.
With `Cc1nn(CN2CCN(C)CC2)c(=S)n1/N=C/c1cccc2ccccc12`, the GI50 was 19.1 µM and the TGI came out at 43.1 µM.

On to `O=C1/C(=C/c2ccc(Br)cc2)C=C(c2ccccc2)N1CCc1ccccc1`, for which the GI50 was 1.2 µM and the TGI was found to be 18.8 µM.

The compound `CCN(CC)CCc1c2c(nc3ccccc13)C(=O)c1cccnc1C2=O` returned a TGI of 8.89 µM.

Compound `CC(C)=CCOC(=O)C(C)=[N+]=[N-]` gave a TGI of over 100 µM.

Compound `Cc1cc(N(CCC#N)CCC#N)ccc1/C=N/NC(=O)c1cc(Cl)ccc1O` showed a TGI of over 100 µM.

As to `CN(C)CCC(=O)N1C/C(=C/c2ccccc2)C(=O)/C(=C\c2ccccc2)C1`, the TGI was found to be 5.75 µM.

For the compound `CC12CC[C@@H](C(C)(C)O)C1[C@@H](O)CC1(C)C2CCC2[C@@]3(C)CC[C@H](O)C(C)(C)C3C(O)C[C@]21C` (stereo partly specified), the TGI was determined as 33.2 µM.

Take `CN(C)/N=N/c1nc2c(c(=O)n(C)c(=O)n2C)n1C`: the TGI was over 100 µM.

`Cc1ccc(C(=O)Nc2ccc(CP(=O)(O)O)cc2CP(=O)(O)O)cc1NC(=O)c1cccc(N)c1` showed a TGI of over 100 µM.

Compound `CC1(Cl)C(=O)NC(=O)N(C2CC(N=[N+]=[N-])C(CO)O2)C1N=[N+]=[N-]` (stereo unspecified) displayed a TGI of over 100 µM.

In the case of `NCC1CCN(c2nc3ccccc3c3c2CCCC3)CC1`, the TGI worked out at 17.4 µM.

The compound `O=C1NNC=Nc2ccc(cc2)S(=O)(=O)c2ccc(cc2)N=CNNC1=O` came in with a TGI of over 100 µM.

For the compound `Cc1ccc(-c2c(C#N)c(-c3ccccc3)n(NS(=O)(=O)c3ccccc3)c(=O)c2C#N)cc1`, the TGI was over 100 µM.

For the compound `CC1=C(CCCNS(C)(=O)=O)C2=C(C)C3(CC3)[C@@](C)(O)C(=O)C2=C1`, the GI50 was 1.29 µM and the TGI stood at 5.92 µM.

As for `COc1ccc(C2=NN(C(=O)c3cc(OC)c(OC)c(OC)c3)C(c3ccc(C#N)cc3)C2)cc1OC` (stereo unspecified), the GI50 was 6.12 µM and the TGI came to 76 µM.

For the compound `O=c1oc2ccc(F)cc2c(=O)n1-c1ccc(F)cc1F`, the GI50 was 3.36 µM and the TGI was over 100 µM.

On to `Cc1c(C(=O)N/N=C/c2ccc(Cl)cc2)nnn1-c1ccnc2c(C(F)(F)F)cccc12`, for which the GI50 is 4.44 µM and the TGI is 20.5 µM.

Take `COc1cc(/C=C2/C(=O)N(C(=O)c3ccccc3O)N=C2C)cc(OC)c1OC`: the TGI is over 100 µM.

For `CNC(=O)OCc1c(COC(=O)NC)c(-c2ccc(Cl)c(Cl)c2)n2c1SCC2`, the TGI stood at 48 µM.

As for `O=C(O)CCCCC(CCSCc1ccccc1)SCc1ccccc1` (stereo unspecified), the GI50 was 72.2 µM and the TGI is over 100 µM.

Regarding `COC(=O)CC(C(C(=O)OC)C(=O)OC)N1C(=O)OCC1c1ccccc1` (stereo unspecified), the TGI is over 100 µM.

The compound `COC(=O)C1(C(=O)OC)CC2=C(S(=O)(=O)c3ccccc3)C[C@H](S(=O)(=O)c3ccccc3)[C@H]2C1` gave a TGI of over 100 µM.

For `CN1CCN(Cc2ccc(NC(=O)c3cncc(C#Cc4cnc(N)c5ccc(C#N)cc45)c3)cc2C(F)(F)F)CC1`, the GI50 was 0.0438 µM and the TGI came to 2.17 µM.

`O=c1[nH]n2c(=O)cc[nH]c2c1-c1nnns1`: the TGI was over 100 µM.

`CCCCCCCCCCCCCCCCCCNc1ccn(C2OC(COP(=O)(O)OCC3OC(n4ccc(NC(=O)CCCCCCCCCCCCCCCCC)nc4=O)C(OC(C)=O)C3OC(C)=O)C(OC(C)=O)C2OC(C)=O)c(=O)n1` (stereo unspecified) came in with a TGI of over 100 µM.

For `COC(=O)CCCCN=Cc1c(O)c(O)c(C(C)C)c2cc(C)c(-c3c(C)cc4c(C(C)C)c(O)c(O)c(C=NCCCCC(=O)OC)c4c3O)c(O)c12`, the GI50 is 1.3 µM and the TGI is over 32.5 µM.

As for `COc1ccc(C2CC(c3c(O)ccc4ccccc34)=NN2c2ccc([N+](=O)[O-])cc2[N+](=O)[O-])cc1OC` (stereo unspecified), the TGI was over 100 µM.

`COCOC1/C=C/CCCC#C[C@H](C)C(=O)CC1` (stereo partly specified): the TGI came out at 28.1 µM.

`CC(C)c1ccc2[nH]c(O)c(-c3[nH]c4ccccc4c3N=O)c2c1`: the TGI came out at 18.5 µM.

For the compound `COc1cc(/C=C/c2cc(/C=C/c3ccc(O)c(OC)c3)n(-c3ccccc3)n2)ccc1O`, the GI50 is 0.492 µM and the TGI was found to be 1.95 µM.

The compound `CC(CN1c2ccccc2Sc2ccccc21)N(C)C` (stereo unspecified) returned a TGI of 36.2 µM.

Turning to `c1ccc(C2C3=C(Nc4ncnn42)c2ccccc2C3)cc1` (stereo unspecified), the TGI is over 100 µM.

`COc1ccccc1C1C(C(=O)Nc2ccccc2)=C(C)NC(C)=C1C(=O)Nc1ccccc1` returned a TGI of over 100 µM.

The compound `Cc1ccc(S(=O)(=O)C(CC(=O)N2CCCC2)C(=O)c2ccccc2)cc1` (stereo unspecified) showed a TGI of over 100 µM.

The compound `C=CCN1C(=O)/C(=C/c2ccccc2)N=C1SC1OC(COC(=O)c2ccccc2)C(OC(=O)c2ccccc2)C1OC(=O)c1ccccc1` (stereo unspecified) registered a TGI of over 100 µM.

As for `O=C(O)CC/C(=N\Nc1nsc2ccccc12)c1ccccc1`, the TGI was over 100 µM.

On to `COc1ccc(-c2cc(-c3ccco3)c(C#N)c(=S)n2C2OC(COC(C)=O)C(OC(C)=O)C(OC(C)=O)C2OC(C)=O)cc1` (stereo unspecified), for which the TGI stood at 32.4 µM.

Turning to `CCNCCNc1cc(-c2ccc(C(=O)OC)cc2)c(C#N)c2nc3ccccc3n12`, the GI50 was 15.9 µM and the TGI was over 100 µM.

Consider `Cn1c(N2NC(=O)C(N=Nc3ccc(S(N)(=O)=O)cc3)C2=O)nc(-c2ccco2)c(C#N)c1=O` (stereo unspecified), for which the GI50 was 0.256 µM and the TGI was over 50 µM.

Consider `COc1cc2c3c(n(C)c(=O)c2cc1OC)-c1cc2c(cc1/C3=C\CCCN1C(=O)c3ccccc3C1=O)OCO2`, for which the GI50 was over 40 µM and the TGI is over 40 µM.

With `CC(C)(C)C1=C(Br)C(Br)(C(C)(C)C)OP1(=O)c1ccccc1` (stereo unspecified), the TGI was over 100 µM.

`CC[C@]1(Cc2ccc(OC)c(OC)c2)CN(S(=O)(=O)c2ccc(C)cc2)C[C@@H]1OC(C)=O` showed a TGI of over 100 µM.

On to `CCOc1cccc(/C=N/NC(=O)c2ccccc2Nc2ccnc(C(F)(F)F)c2)c1O`, for which the GI50 was 0.35 µM and the TGI is over 100 µM.

In turn, `COC(=O)C(/C(=N/NC(N)=O)C(=O)Nc1ccc(C)cc1)c1nc2ccc([N+](=O)[O-])cc2[nH]c1=O` (stereo unspecified) came in with a TGI of over 100 µM.

`COc1ccc(OC)c(NC(=O)C(=O)C(C(C)=O)c2nc3ccc(Cl)cc3[nH]c2=O)c1` (stereo unspecified) came in with a TGI of over 50 µM.

With `O=C(CN1c2ccccc2Sc2ccccc21)N1CCNCC1`, the TGI is over 100 µM.

With `CSc1ccc(C2=NN(C(C)=O)C(c3cc(C)cs3)C2)cc1` (stereo unspecified), the GI50 was 52.8 µM and the TGI was over 100 µM.

As for `COC(=O)C(=O)C(C(=O)C=C(C)C)C(=O)C(=O)Nc1cc(C(F)(F)F)ccc1Cl` (stereo unspecified), the TGI was over 100 µM.

Compound `O=C(O)c1cc2c(cc1CC(Cc1ccc3c(c1)CCC3)C(=O)O)CCC2` (stereo unspecified) yielded a TGI of over 100 µM.

For `C[C@]12CC[C@@H]3c4ccc(O)cc4CC[C@H]3[C@@H]1C/C(=C\c1ccncc1)C2=O`, the TGI was over 100 µM.

With `CCc1c(Oc2ccc(C(C)=O)cc2)c2ccccc2[nH]c1=O`, the GI50 is 15.3 µM and the TGI came to 55.1 µM.

With `Cc1ccc(CS/C(=C\c2ccc([N+](=O)[O-])cc2)C(=O)c2ccc(F)cc2)cc1`, the GI50 was 33.8 µM and the TGI is over 100 µM.

Compound `CCCCN(CCCC)C(=O)C(=O)C(C#N)c1ccc(C)cc1` (stereo unspecified) came in with a TGI of over 100 µM.

The compound `CCOC(=O)C1Cc2[nH]c3ccccc3c2C(C)C1C` (stereo unspecified) came in with a TGI of 39.3 µM.

As for `O=C(Nc1ccc(N2CCNCC2)cc1)c1[nH]ncc1Nc1cc(Oc2ccccc2)ncn1`, the GI50 is 2.03 µM and the TGI is 5.87 µM.

In turn, `N#CC1(Cc2ccc(N)cc2)c2ccccc2C=CN1C(=O)c1ccccc1` (stereo unspecified) yielded a TGI of over 100 µM.

For the compound `O=[N+]([O-])/C=C\c1ccc(Cl)c(Cl)c1`, the GI50 is 1.85 µM and the TGI is 5.71 µM.

In the case of `CCN(CC)c1c(C(=O)/C=C/c2ccccc2)c(-c2ccccc2)nn(C)c1=O`, the TGI is over 100 µM.

The compound `C=C(C(=O)C(=O)Oc1ccc(Cl)cc1)C(=O)c1ccc(C)cc1` came in with a TGI of over 100 µM.

`CC1OC(n2cc(F)c(=O)[nH]c2=O)CCC1O` (stereo unspecified) came in with a TGI of over 100 µM.

As to `O=C(CN1CCOCC1)Nc1ccc(Cn2nnc3c2C(=O)c2nnn(Cc4ccc(NC(=O)CN5CCOCC5)cc4)c2C3=O)cc1`, the GI50 is 0.56 µM and the TGI was 5.09 µM.

In the case of `COC(=O)CNC(=O)C(Cc1ccccc1)NC(=O)C(CCSC)NC(=O)C(Cc1ccc(O)cc1)NC(=O)OC(C)(C)C` (stereo unspecified) (Boc-YMFG-OMe; configuration not given here), the TGI was over 100 µM.

As for `COc1cccc(/C=N/NC(=O)c2ccccc2Nc2ccnc(C(F)(F)F)c2)c1O`, the GI50 was 0.375 µM and the TGI is over 100 µM.

Regarding `CSc1nc(Cl)c2c(n1)Sc1nc3cc4c(cc3n1C2O)OCCO4` (stereo unspecified), the TGI was found to be 20 µM.

Turning to `OC1C2[C@@H](O)CCCN2C[C@@H](O)[C@H]1O` (stereo partly specified), the TGI was over 100 µM.

In turn, `C#CCCCCC#Cc1ccccc1C(=O)OC` came in with a TGI of over 100 µM.

As for `COc1ccc2[nH]c3c(C)c4c(c(C)c3c2c1)CN(C)CC4`, the TGI is 74.6 µM.

Turning to `C=C(CN1CCc2ccccc2C1)c1ccc(C(=O)Nc2cnccn2)cc1`, the GI50 is 11.2 µM and the TGI is over 100 µM.

`C[C@@]12[C@H]3CC[C@@H]1[C@H](O)C(=O)N2CC3`: the TGI was over 100 µM.

In turn, `CCCCCCCCCC[C@@H](O)[C@@H]1CC[C@H]([C@H]2CC[C@@H]([C@@H](O)CCCCCCCCCC[C@H]3CC(CC(C)=O)C(=O)O3)O2)O1` (stereo partly specified) had a TGI of 78.9 µM.

`O=C(N/N=C/c1ccccc1O)c1cccc([N+](=O)[O-])c1` gave a TGI of over 100 µM.

In turn, `O=C1C(Cl)=C(N2CCN(C3=C(Cl)C(=O)c4ccccc4C3=O)CC2)C(=O)c2ccccc21` gave a TGI of 25.4 µM.

Regarding `Cc1c(-c2nc3ccccc3[nH]2)c(=O)n(-c2ccccc2)n1C`, the TGI is over 100 µM.

As for `O=C1/C(=C/c2ccc(Cl)cc2Cl)N=C(c2ccccc2)N1Cc1ccco1`, the GI50 is 18.9 µM and the TGI was 55.7 µM.

Compound `CCOC(=O)NC(=O)c1cn(C2OC(COC(=O)CCCCCCCCC(=O)OCC3OC(n4cc(C(=O)NC(=O)OCC)c(=O)[nH]c4=O)C(O)C3O)C(O)C2O)c(=O)[nH]c1=O` (stereo unspecified) had a TGI of over 100 µM.

Take `O=C(CCCCCCCCC(=O)NN1C(=O)/C(=C\c2ccc(O)c(O)c2)SC1c1ccc(Cl)cc1)NN1C(=O)/C(=C\c2ccc(O)c(O)c2)SC1c1ccc(Cl)cc1` (stereo unspecified): the TGI is 54.1 µM.

In turn, `COC1C(CN[N+](=O)CC2OC3OC(C)(C)OC3C2OC)OC2OC(C)(C)OC21` (stereo unspecified) displayed a TGI of over 100 µM.

As to `O=C(O)CN(CCNC(=O)OCC1c2ccccc2-c2ccccc21)CCNC(=O)OCC1c2ccccc2-c2ccccc21`, the TGI came out at 69.3 µM.
